# Laboratory results reported in PubChem BioAssay AID588855 (National Center for Advancing Translational Sciences (NCATS), 2011).
# Where “and” joins values, the source holds several entries; their conditions need not be identical. Equal entries are not always repeated. Screen size: about 410,000 compounds; about 5,000 (1.2%) were called active. The shares of active, inactive and inconclusive entries below differ from those in the screen. The call rests on the fitted dose curve; in most records, active means well fitted inhibition curve with a large enough effect; inconclusive means small, poorly fitted or top-dose-only effect; inactive means no such curve, though single readings can be large or run the other way. Where the call is inconclusive, the potency comes from a doubtful curve fit.
# Assay: qHTS for Inhibitors of TGF-b; further: nearly all actives have a fitted effect of over 65% in size
# Details: HepG2 CAGA-GFP TGF-b/SMAD3 reporter, GFP fluorescence, 18 h, TGF-beta stimulated, 500 pg/mL final; series mostly up to 46.1 µM; activity, negative = inhibition: at the top concentration
# Procedure, shortened: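 Read-out: total well GFP (ex488/em500-530) summed from mean per-cell fluorescence. Cells: HEPG2 CAGA-GFP, 1% FBS DMEM, 18 h at 37 degrees C with 500 pg/mL final TGF-beta. Unstimulated wells served as the full-inhibition control; stimulated DMSO wells = 0%.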
# On the % scale 0 is the no-effect control and ±100 the full control effect; potency means the concentration at half of the fitted maximal effect; tags describe the fitted curve by direction and shape.
Structure (SMILES),"activity, negative = inhibition",Potency
Cc1ccc(N(C(=O)c2csnn2)C(C(=O)NC2CCCCC2)c2ccccn2)cc1C (centres undefined),inactive: -4.54%,–
COc1ccccc1C(=O)Nc1ccc2c(c1)nc(CCNC(=O)c1ccco1)n2C,–,"inconclusive: 12.6 µM [inhibitor, single point]"
CCCc1nc2ccccc2c(C(=O)OCC(=O)NCc2ccc3c(c2)OCO3)c1CC,–,"inconclusive: 12.6 µM [inhibitor, single point]"
CCc1noc(C)c1C(=O)Nc1nc(-c2ccc(Cl)cc2Cl)cs1,–,active: 11.2 µM
c1ccc2c(c1)oc1c(-c3cccc4nccn34)cccc12,–,"inconclusive: 0.447 µM [inhibitor, full curve, poor fit]"
CCCCCCCCCCOC(=O)Cn1c(COc2ccccc2C)[n+](C)c2ccccc21,–,"inconclusive: 22.4 µM [inhibitor, single point]"
CCCNC(=O)Cn1nc(-c2ccc(C)cc2)c2cnc3ccc(CC)cc3c21,inactive: -24.5%,–
Cc1ccccc1-c1nsc(SCC(=O)NCc2ccc3c(c2)OCO3)n1,–,"inconclusive: 6.31 µM [inhibitor, single point]"
COc1ccccc1NS(=O)(=O)c1cc(NC(=O)c2ccncc2)ccc1N1CCCC1,–,"inconclusive: 3.16 µM [inhibitor, full curve]"
O=C1CN(C(=O)CSc2nnnn2C2CC2)c2ccccc2N1,inactive: 3.38%,–
O=C1NCCNC(=O)c2ccccc2OCCOc2ccccc21,–,"inconclusive: 0.112 µM [inhibitor, full curve, poor fit]"
CC(=O)c1ccc(N2CCN(C(=O)c3ccc4ccccc4n3)CC2)cc1,inactive: 11.8%,–
C[C@@H]1CN([C@H](C)CO)S(=O)(=O)c2ccc(C#CC3CCCCC3)cc2O[C@H]1CN(C)C(=O)Cc1ccncc1,–,"inconclusive: 35.5 µM [inhibitor, single point]"
CC(C)(CC1(C)NC(=O)NC1=O)OCc1ccccc1 (centres undefined),inactive: -1.89%,–
Cc1noc(C)c1COc1ccccc1C(=O)N(C)Cc1ccc(C(C)(C)C)cc1,–,active: 11.2 µM
O=C(CCN1CCOCC1)NNC(=O)Nc1cccc([N+](=O)[O-])c1,inactive: -8.52%,–
COc1cc(NC(=O)c2ccc(-c3nc(CSc4ccccc4)c(C)o3)cc2)cc(OC)c1,–,"inconclusive: 0.1 µM [inhibitor, full curve, poor fit]"
Cc1ccc(C)c(NC(=O)COC(=O)CNC(=O)c2ccccc2Cl)c1,–,"inconclusive: 5.01 µM [inhibitor, full curve, poor fit]"
CCOC(=O)C1=C(C)N=c2sc(=Cc3cc(Cl)c(OCC(=O)O)c(Cl)c3)c(=O)n2C1c1cccc(OC)c1 (centres undefined),inactive: -2.33%,–
CS(=O)Cc1cc(Sc2ccccc2)nc(-c2ccncc2)n1 (centres undefined),inactive: 0.899%,–
O=C(CCNS(=O)(=O)c1ccc(Br)cc1)NCc1ccc(F)cc1,inactive: 3.27%,–
CCOc1ccc(-c2cn3c(n2)sc2cc(C(=O)NCCCN4CCCCC4)ccc23)cc1,inactive: -0.462%,–
COc1cc(OC)c2c(-c3ccccc3)cc(=O)oc2c1C(CCN1CCCC1)c1ccc2c(c1)OCO2 (centres undefined),–,"inconclusive: 35.5 µM [inhibitor, single point] and inconclusive: 17.8 µM [inhibitor, single point]"

Structure (SMILES),"activity, negative = inhibition",Potency
Cc1cc(C)nc(CCNC(=O)c2cc(COc3ccc(F)cc3Cl)on2)n1,–,"inconclusive: 28.2 µM [inhibitor, single point]"
O=C(CCCn1c(=O)[nH]c2ccc(Br)cc2c1=O)N1CCN(c2cccc(Cl)c2)CC1,–,active: 5.01 µM
COc1ccccc1C(=O)NCC(c1ccc(N(C)C)cc1)N1CCc2ccccc21 (centres undefined),–,"inconclusive: 12.6 µM [inhibitor, partial curve]"
COc1cc2c(=O)n(Cc3ccco3)c(=O)n(CC(=O)c3ccc(Br)cc3)c2cc1OC,–,"inconclusive: 22.4 µM [inhibitor, single point]"
CCc1nc2ccccc2c(C(=O)OCC(=O)N(CCOC)c2c(N)n(Cc3ccccc3)c(=O)[nH]c2=O)c1C,–,"inconclusive: 3.16 µM [inhibitor, single point]"
CCc1cc(=O)oc2cc3oc(C)c(C)c3cc12,–,"inconclusive: 25.1 µM [inhibitor, single point]"
CCCCc1nn2c(=O)cc(COC(=O)c3ccc4c(c3)OCO4)nc2s1,–,"inconclusive: 2.82 µM [inhibitor, full curve, poor fit]"
Cc1ccc(S(=O)(=O)N2CCOCC2)cc1C(=O)Nc1ccc(N2CCCCCC2)cc1,–,"inconclusive: 17.8 µM [inhibitor, single point]"
CCN(CC)C(=O)C1CCCN(c2ccc([N+](=O)[O-])cc2/C=N/NC(=O)c2ccc([N+](=O)[O-])cc2)C1 (centres undefined),inactive: 24.2%,–
O=C(c1cnc2ccc3ccccc3c2c1)c1cc(F)ccc1O,–,"inconclusive: 20 µM [inhibitor, single point]"
COc1ccc(NC(=S)NC2CCCCCC2)c(OC)c1,–,"inconclusive: 25.1 µM [inhibitor, single point]"
Nc1cccc2c1C(=O)N(C(=O)/C=C/c1cccc(F)c1)C2=O,–,active: 14.1 µM
C/C(=N\NC(=O)c1ccc(OC2CCCC2)cc1)c1ccc(O)cc1,inactive: 1.89%,–
O=C(c1nc2nc(-c3cccs3)cc(C(F)(F)F)n2n1)N1CCN(Cc2ccccc2)CC1,–,"inconclusive: 0.794 µM [inhibitor, full curve, poor fit]"
Cc1ccc(NC(=O)CN(C)C(=O)COC(=O)CNS(=O)(=O)c2ccc(Br)cc2Cl)cc1,–,"inconclusive: 6.31 µM [inhibitor, single point]"
CN(C)c1ccccc1-c1cc(NC=O)c2ncc(-c3cccc(C(F)(F)F)c3)n2c1,–,"inconclusive: 35.5 µM [inhibitor, single point]"
COc1ccc(C(=O)C2CCCN(S(=O)(=O)c3ccccc3F)C2)c(C)c1 (centres undefined),–,"inconclusive: 25.1 µM [inhibitor, single point]"
CCCCc1ccc(N/C(N)=N/c2nc(C)cc(C)n2)cc1,–,"inconclusive: 2.82 µM [inhibitor, full curve, poor fit]"
C/C(N)=C(/C#N)C(=O)COC(=O)c1ccccc1O,–,"inconclusive: 22.4 µM [inhibitor, single point]"
Cc1ccc(S(=O)(=O)/N=C(\N)c2ccc(F)cc2)cc1,inactive: 13.6%,–
CC1CC(C)CN(C(=O)/C(=C\c2ccccc2)c2ccccc2)C1 (centres undefined),–,"inconclusive: 17.8 µM [inhibitor, single point]"
Clc1ccc(-c2cn3ccccc3n2)cc1,–,"inconclusive: 11.2 µM [inhibitor, partial curve, poor fit]"
Oc1c(C(c2ccccn2)N2CCOCC2)ccc2cccnc12 (centres undefined),–,active: 3.98 µM

Structure (SMILES),"activity, negative = inhibition",Potency
COc1cccc(-c2cnc(C(O)c3ccc(Cl)c(F)c3)[nH]2)c1 (centres undefined),inactive: -0.685%,–
COc1ccccc1C1CC(=O)NC(C)=C1C(=O)OC1CCCCCC1 (centres undefined),–,"inconclusive: 1.41 µM [inhibitor, partial curve]"
COC(=O)C1=C(C)Nc2nnnn2C1c1cccnc1 (centres undefined),inactive: 31.8%,–
CCc1nc2c(OCC(=O)C(C)(C)C)cccn2c1N(C)C(=O)C1CC1,–,"inconclusive: 14.1 µM [inhibitor, single point]"
COCCn1c(SCC(=O)Nc2ccccc2C)nc2c(oc3ccccc32)c1=O,–,"inconclusive: 0.794 µM [inhibitor, partial curve, poor fit]"
COC(=O)c1ccc(NC(=O)CSc2ccc(-c3sc(-c4ccccc4)nc3C)nn2)cc1,inactive: -1.29%,–
CCc1ccc(-n2c(=O)c3cccnc3n2CC(=O)NCc2ccccc2)cc1,–,"inconclusive: 35.5 µM [inhibitor, single point]"
COc1ccc2nc(N(Cc3cccnc3)C(C)=O)sc2c1,inactive: -14.5%,–
OC[C@@H]1CN(Cc2ccc(F)cc2)C[C@H](n2cnc3c(NCc4ccco4)ncnc32)O1,inactive: -3.42%,–
COc1cc(Cl)c(C)cc1Nc1nc2ccccc2c2nnc(C)n12,inactive: 4.71%,–
COc1ccc(C2CC(=O)N3CN(C4CCCCC4)CSC3=C2C#N)c(OC)c1 (centres undefined),–,"inconclusive: 12.6 µM [inhibitor, partial curve]"
O=C(CSc1ccc(Cl)cc1)N1CCN(c2ccc(Cl)cc2[N+](=O)[O-])CC1,–,"inconclusive: 8.91 µM [inhibitor, partial curve, poor fit]"
CC1(O)CC2CC1C(C(=O)O)C2C(=O)O (centres undefined),inactive: 14.2%,–
COc1ccc(-c2cc(-c3ccccc3)n[nH]2)c(O)c1,–,"inconclusive: 35.5 µM [inhibitor, single point]"
CCC(C)/C(C)=N/NC(=O)CSc1nc2ccccc2[nH]1 (centres undefined),inactive: 10.5%,–
CCOc1ccc(C2CC(=O)Nc3nc(SCc4ccccc4C)[nH]c(=O)c32)cc1OC (centres undefined),–,"inconclusive: 15.8 µM [inhibitor, single point]"
O=C(NC1(C(F)(F)F)NC(=O)N(CC2CCCCC2)C1=O)c1ccco1 (centres undefined),inactive: -21.4%,–
Cc1ccc(C)c(NC(=O)n2ncc3cc(Cl)ccc32)c1,inactive: 34.6%,–
CC(=O)Nc1ccc(N(C(=O)c2ccco2)C(C(=O)NC2CCCC2)c2ccncc2)cc1 (centres undefined),inactive: -1.88%,–
CCN(CC)C(=O)c1[nH]cnc1C(=O)N[C@@H](Cc1ccccc1)C(=O)OC(C)(C)C,–,"inconclusive: 5.62 µM [inhibitor, single point]"
COc1ccccc1CN(C)CC(=O)Nc1ccc(Cl)cc1F,–,"inconclusive: 11.2 µM [inhibitor, single point]"
Cc1cc(C)cc(C(O)c2ncc(-c3ccc4ccccc4c3)[nH]2)c1 (centres undefined),–,"inconclusive: 25.1 µM [inhibitor, single point]"
O=C(Nc1ccc(N2CCCC2)c(Cl)c1)c1ccc2c(c1)OCCO2,–,"inconclusive: 5.01 µM [inhibitor, full curve, poor fit]"
